Test results published in the supplement of paper PMC10126150.
Sequences with one replicate were seen in a single cluster, so their values are uncertain.
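Note: ATP exposure 15 min at 22 °C before imaging.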

These sequences were tested on ATP (assay: switch fluorescence ratio, 500 uM ATP over buffer (Cy3 cluster intensity, sum of 5 cycles each) (fold (ratio)); higher = stronger signal-on switching upon ATP binding; sequences stand for … in TCGTCGGCAGCGTCAGATGTGTATAAGAGACAGTTTTTTTTTTTTTTTTTTTTTTTTT…TC). Details: aptamer strand: ATP DNA aptamer (quencher-CACCTGGGGGAGTATTGCGGAGGAAGG + anchor), 100 nM annealed; ATP concentration: 500 uM; one replicate.
How it was run: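 Clusters carrying Cy3-labelled switching strands on a modified Illumina MiSeq flow-cell were annealed to 100 nM quencher-labelled ATP aptamer and imaged in selection buffer. They were imaged again after 15 min with 500 uM ATP at 22 °C, over five buffer/ATP cycles with NaOH stripping and re-annealing in between. For each cluster, the fluorescence ratio is the summed Cy3 intensity of the target cycles divided by that of the buffer cycles, averaged per switch-domain sequence. Clusters outside 100-1000 RFU were left out.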
In the case of CTATGGGCTG, the switch fluorescence ratio is reported as 0.901. Sequence TATAGAATAT has a switch fluorescence ratio of 0.984. With AATGTGTAAT the switch fluorescence ratio was 1.13. Sequence TCGCATCGTT has a switch fluorescence ratio of 0.976. With AGAGTGCAGG the switch fluorescence ratio was 0.995. In the case of TAGGGTATAG, the switch fluorescence ratio is reported as 1.02. In the case of GGAAGCATCG, the switch fluorescence ratio is reported as 0.998. TGATGTTTAC gave a switch fluorescence ratio of 1. In the case of GCAGTTCAGG, the switch fluorescence ratio is reported as 1.05. TGTGTATGTT was tested, and the switch fluorescence ratio was 1.03. CCTGAATTTT was tested, and the switch fluorescence ratio was 0.984. In the case of CGTGCCGCTA, the switch fluorescence ratio is reported as 1.21. AAAAGATGTT showed a switch fluorescence ratio of 1. In the case of TGTTCGCTTA, the switch fluorescence ratio is reported as 1.04. CGGAATCGGC was tested, and the switch fluorescence ratio was 0.933. AGATTAGACG showed a switch fluorescence ratio of 1.06. Sequence TGAAGTATAT has a switch fluorescence ratio of 1.12. Sequence CGTTTGTGAC has a switch fluorescence ratio of 1.01. TCTTCGACCT was tested, and the switch fluorescence ratio was 1.23. With CTAAATATCT the switch fluorescence ratio was 1.03. CATAATCCAG gave a switch fluorescence ratio of 0.99. With TATCTCTAGC the switch fluorescence ratio was 0.985. CAGGCCCTGT showed a switch fluorescence ratio of 0.99. With CTCCACACGT the switch fluorescence ratio was 1.31. For TGGGGAGGTC, the switch fluorescence ratio was 1. GTGTTGAAGA gave a switch fluorescence ratio of 0.954. In the case of TATGATTACT, the switch fluorescence ratio is reported as 1.02. In the case of AAAACCGGTC, the switch fluorescence ratio is reported as 1.2. TGTCGGAGCT showed a switch fluorescence ratio of 1.03. Work on CTTATGAGGC yielded a switch fluorescence ratio of 1.03. With AATGCAAATG the switch fluorescence ratio was 0.983. GAGCGGTGTA gave a switch fluorescence ratio of 1. With TCAAGTCCAT the switch fluorescence ratio was 1.03. ATCCATCTTG gave a switch fluorescence ratio of 0.956. GATAGTCTGT was tested, and the switch fluorescence ratio was 0.98. Sequence GTGTGCATTA has a switch fluorescence ratio of 0.978. Sequence TTTTCTACAC has a switch fluorescence ratio of 0.954. TATCCAAACG was tested, and the switch fluorescence ratio was 1.01. AAACTGATCT was tested, and the switch fluorescence ratio was 1.03. In the case of CTCGTGTTTT, the switch fluorescence ratio is reported as 0.952. For ATCTAGCAGA, the switch fluorescence ratio was 1.08. GAGAGGCCGG showed a switch fluorescence ratio of 0.992. With GGCGTCCCTG the switch fluorescence ratio was 1.02. ATCATCTACT was tested, and the switch fluorescence ratio was 1.02. In the case of GCATCGCTGG, the switch fluorescence ratio is reported as 0.954. TGGCATAGCG gave a switch fluorescence ratio of 1.02. Sequence CGCGGGAG has a switch fluorescence ratio of 1.03. GTGGTTTCGC was tested, and the switch fluorescence ratio was 1.04. In the case of CAAATGCAGT, the switch fluorescence ratio is reported as 1.03. With TATATAAGGA the switch fluorescence ratio was 1.03. GGAGAACGAC gave a switch fluorescence ratio of 1.08. AAACAGTATT showed a switch fluorescence ratio of 1.07. Sequence TATGCTCCAG has a switch fluorescence ratio of 1.06. Sequence TTTATCAGCA has a switch fluorescence ratio of 0.963. With CATGAATTAC the switch fluorescence ratio was 1.04. With GTGGTGAGAG the switch fluorescence ratio was 1.02. ACGTGTAATG was tested, and the switch fluorescence ratio was 1.03. With TGGCGCCGGC the switch fluorescence ratio was 0.878. Work on GCTATGGTTC yielded a switch fluorescence ratio of 0.999. With GCAGTGTTGT the switch fluorescence ratio was 0.973. Sequence TTGCTGGGGC has a switch fluorescence ratio of 1. Sequence CCCTAAGGGC has a switch fluorescence ratio of 1.04. With CAGTTCGAAC the switch fluorescence ratio was 0.962. ATCCGAGAGA gave a switch fluorescence ratio of 1.04. GCTTATTTGT showed a switch fluorescence ratio of 1. For TACATATTTA, the switch fluorescence ratio was 1.06. For ACCCAATAAC, the switch fluorescence ratio was 2.43. With CGGAATATAG the switch fluorescence ratio was 1. Work on GGCTTACGG yielded a switch fluorescence ratio of 0.984. For TCGGCACTCT, the switch fluorescence ratio was 0.987. Work on AGAGAGGGTC yielded a switch fluorescence ratio of 0.985. In the case of TAAATTGGAT, the switch fluorescence ratio is reported as 1.01. For GGCTGTCGGT, the switch fluorescence ratio was 1.01. With TGATCTTATA the switch fluorescence ratio was 0.968. TAGGTGATT showed a switch fluorescence ratio of 1.06. TAATGAACGG was tested, and the switch fluorescence ratio was 1.02. With GGTTTGCCAG the switch fluorescence ratio was 1.01. For TCTCACAATG, the switch fluorescence ratio was 1.18. For AGTCCTACGT, the switch fluorescence ratio was 1.11. AAGGTAGTAT was tested, and the switch fluorescence ratio was 1.01. CGGACAATAG gave a switch fluorescence ratio of 1.21. Sequence TAGCGTGATA has a switch fluorescence ratio of 1.01. Work on AAAAGGTG yielded a switch fluorescence ratio of 1.12. Work on CAGGCCGGGG yielded a switch fluorescence ratio of 1.03. Sequence GTCAACGGAT has a switch fluorescence ratio of 1.01. With TTTACGATGA the switch fluorescence ratio was 1.02. In the case of AATGTAAAGC, the switch fluorescence ratio is reported as 0.992. GGACGGCTGG showed a switch fluorescence ratio of 0.948. TTTTTACGTA showed a switch fluorescence ratio of 1.17. In the case of CTCTACCCCT, the switch fluorescence ratio is reported as 1.12. CCCATCAAGG showed a switch fluorescence ratio of 1.05. GAAATAGCCT was tested, and the switch fluorescence ratio was 1.2. ATTTGTCCTA showed a switch fluorescence ratio of 0.991. For GTGGGCG, the switch fluorescence ratio was 1.06. AAAAATTGGA showed a switch fluorescence ratio of 0.918. For GATGATTG, the switch fluorescence ratio was 0.95. With CCAAGAGCTG the switch fluorescence ratio was 1.07. GATACGCTTT was tested, and the switch fluorescence ratio was 1.05. In the case of ACTGTCTTGG, the switch fluorescence ratio is reported as 0.998. For TTACCGCCGT, the switch fluorescence ratio was 0.967. In the case of ATCTGGTACA, the switch fluorescence ratio is reported as 1.06. In the case of GGATACGGAC, the switch fluorescence ratio is reported as 1.46. Sequence AGTTAAGTTT has a switch fluorescence ratio of 0.946. GTTTTAACGC showed a switch fluorescence ratio of 1.02. ATTCTGGTAT was tested, and the switch fluorescence ratio was 0.997. With CGAAAGAAAA the switch fluorescence ratio was 0.939. In the case of TTAAGCAAA, the switch fluorescence ratio is reported as 0.993. AATGGGATCA gave a switch fluorescence ratio of 0.993. In the case of GTATGTTCTA, the switch fluorescence ratio is reported as 1.03. ACGCAGCGCT gave a switch fluorescence ratio of 1.23. With GCCTTCCGAG the switch fluorescence ratio was 3.41. In the case of GTAGGATACG, the switch fluorescence ratio is reported as 1.06. In the case of ATCAAGTCAC, the switch fluorescence ratio is reported as 1.12. Sequence CTGGTTTTTG has a switch fluorescence ratio of 0.993. Work on GGTCCACGGA yielded a switch fluorescence ratio of 1.01. In the case of GCGGGGGTGG, the switch fluorescence ratio is reported as 0.988. Sequence CTTATGGGTT has a switch fluorescence ratio of 1.01. ACGGAAACTT gave a switch fluorescence ratio of 1.1. For GCGATTCAGC, the switch fluorescence ratio was 0.987. With ACGTTTTTGG the switch fluorescence ratio was 0.977. CCATGTAAAC showed a switch fluorescence ratio of 1.17. In the case of ATGCTTGTAC, the switch fluorescence ratio is reported as 1.11. AATGCACACT gave a switch fluorescence ratio of 1.01. GCTAATTCAC showed a switch fluorescence ratio of 1.09. Work on TAATATCGT yielded a switch fluorescence ratio of 1.03. CGAGCGGGG showed a switch fluorescence ratio of 1.02. GCGTGTAATA gave a switch fluorescence ratio of 1.01. GACCATAGGT gave a switch fluorescence ratio of 0.989. For ATATATTATC, the switch fluorescence ratio was 0.975. Sequence TGGCGCTGGC has a switch fluorescence ratio of 0.968. With GGTCCGTTTT the switch fluorescence ratio was 1.05. In the case of CCGTAAGTCC, the switch fluorescence ratio is reported as 2.16. GCGAAGCCAA gave a switch fluorescence ratio of 1.06. For ACCAAATCCG, the switch fluorescence ratio was 1.35. Sequence TTCATTCC has a switch fluorescence ratio of 1.26. For AACGGCTTTG, the switch fluorescence ratio was 1.01. AGGTGGGCCA gave a switch fluorescence ratio of 0.971. For CATGTAATTC, the switch fluorescence ratio was 1.06. CTATGCACTC was tested, and the switch fluorescence ratio was 1.92. Sequence GACTTAGT has a switch fluorescence ratio of 0.96. GACTTCGATT was tested, and the switch fluorescence ratio was 1.03. TGGTTAGTTC gave a switch fluorescence ratio of 0.973. GAAAAAGTTG gave a switch fluorescence ratio of 0.879. For CCCCGAGTTC, the switch fluorescence ratio was 1.59. AGATCTAAAA was tested, and the switch fluorescence ratio was 0.999. GAGTTAAGGC showed a switch fluorescence ratio of 0.938. For GCTTAAAGGT, the switch fluorescence ratio was 1.02. With CTCGGCGTCA the switch fluorescence ratio was 1.02. Work on TGATCCCTGT yielded a switch fluorescence ratio of 1.02. CACCGTAGCT showed a switch fluorescence ratio of 1.43. GCCAATATAA was tested, and the switch fluorescence ratio was 1.04. CGCAATCGCG gave a switch fluorescence ratio of 1.26. For ATGCGATCGA, the switch fluorescence ratio was 1.06. For CTTGTACGA, the switch fluorescence ratio was 1.02. Work on CATGTGGTT yielded a switch fluorescence ratio of 0.998. For TAAACAGGTG, the switch fluorescence ratio was 1.95. Work on GGAGAAAT yielded a switch fluorescence ratio of 1.05. GATGGCATGG gave a switch fluorescence ratio of 0.973.
